# Marks after values point to notes of the source that are not given here.
# Key:
# [1] = tested on: Influenza A/NWS/33 (H1N1); test: Influenza A (H1N1) virus-infected mice, i.p. treatment (Table I); details: for Mean Lung Parameters Weight / Mean Lung Parameters Score: day 6; for Mean Lung Parameters Score: 0=normal, 4=100% of lung affected; for Mean SaO2 %: mean of days 3-10; for Surv/Total: bid x 5 beginning 4 hr pre-virus exposure, held 21 days
# [2] = tested on: Influenza A/NWS/33 (H1N1); test: Influenza A (H1N1) virus-infected mice, oral gavage treatment (Table II); details: for Mean Surv. Time / Mean Surv. Time (days): animals dying on or before day 21; for Mean SaO2 %: mean of days 3-10; for Surv/Total: bid x 5 beginning 4 hr pre-virus exposure, held 21 days
# [3] = 10 mg/kg/day p.o., bid x 5, day 6
# [4] = 50 mg/kg/day p.o., bid x 5, day 6
# [5] = 250 mg/kg/day p.o., bid x 5, day 6
# [6] = 32 mg/kg/day p.o., bid x 5, day 6
# [7] = 100 mg/kg/day p.o., bid x 5, day 6
structure (smiles),measurement,setting,value
"CC(=O)N[C@H]1[C@H]([C@H](O)[C@H](O)CO)OC(C(=O)O)=C[C@@H]1N=C(N)N [GG167, 4-guanidino-2,4-dideoxy-2,3-dehydro-N-acetylneuraminic acid]",Mean Surv. Time,"[1]; 0.5 mg/kg/day i.p., bid x 5, animals dying on or before day 21",12.3 days
same,Mean Lung Parameters Weight,"[1]; 0.5 mg/kg/day i.p., bid x 5",227 mg
same,Mean Lung Parameters Score,"[1]; 0.5 mg/kg/day i.p., bid x 5",2.3
same,Mean SaO2 %,"[1]; 0.5 mg/kg/day i.p., bid x 5",84.5%
same,Surv/Total,[1]; 0.5 mg/kg/day i.p.,0/8
same,Mean Surv. Time,"[1]; 2 mg/kg/day i.p., bid x 5, animals dying on or before day 21",12.6 days
same,Mean Lung Parameters Weight,"[1]; 2 mg/kg/day i.p., bid x 5",213 mg
same,Mean Lung Parameters Score,"[1]; 2 mg/kg/day i.p., bid x 5",1.3
same,Mean SaO2 %,"[1]; 2 mg/kg/day i.p., bid x 5",86.0** %
same,Surv/Total,[1]; 2 mg/kg/day i.p.,1/8
same,Mean Surv. Time,"[1]; 10 mg/kg/day i.p., bid x 5, animals dying on or before day 21",15.0 days
same,Mean Lung Parameters Weight,"[1]; 10 mg/kg/day i.p., bid x 5",170* mg
same,Mean Lung Parameters Score,"[1]; 10 mg/kg/day i.p., bid x 5",1.7
same,Mean SaO2 %,"[1]; 10 mg/kg/day i.p., bid x 5",87.5** %
same,Surv/Total,[1]; 10 mg/kg/day i.p.,7/8**
same,Mean Surv. Time (days),"[1]; 50 mg/kg/day i.p., bid x 5, animals dying on or before day 21",>21.0** days
same,Mean Lung Parameters Weight,"[1]; 50 mg/kg/day i.p., bid x 5",230 mg
same,Mean Lung Parameters Score,"[1]; 50 mg/kg/day i.p., bid x 5",0.7*
same,Mean SaO2 %,"[1]; 50 mg/kg/day i.p., bid x 5",87.6** %
same,Surv/Total,[1]; 50 mg/kg/day i.p.,8/8**
same,Mean Surv. Time,"[2]; 10 mg/kg/day p.o., bid x 5",10.5 days
same,Mean Lung Parameters Weight,[2]; [3],250 mg
same,Mean Lung Parameters Score,[2]; [3],1.5*
same,Mean SaO2 %,"[2]; 10 mg/kg/day p.o., bid x 5",85.2%
same,Surv/Total,[2]; 10 mg/kg/day p.o.,5/7*
same,Mean Surv. Time (days),"[2]; 50 mg/kg/day p.o., bid x 5",>21.0** days
same,Mean Lung Parameters Weight (mg),[2]; [4],187* mg
same,Mean Lung Parameters Score,[2]; [4],1.5*
same,Mean SaO2 %,"[2]; 50 mg/kg/day p.o., bid x 5",88.0* %
same,Surv/Total,[2]; 50 mg/kg/day p.o.,8/8**
same,Mean Surv. Time (days),"[2]; 250 mg/kg/day p.o., bid x 5",>21.0** days
same,Mean Lung Parameters Weight (mg),[2]; [5],163** mg
same,Mean Lung Parameters Score,[2]; [5],0.3**
same,Mean SaO2 %,"[2]; 250 mg/kg/day p.o., bid x 5",88.6* %
same,Surv/Total,[2]; 250 mg/kg/day p.o.,8/8**
"NC(=O)c1ncn([C@@H]2O[C@H](CO)[C@@H](O)[C@H]2O)n1 [Ribavirin, ribavirin]",Mean Surv. Time,"[2]; 10 mg/kg/day p.o., bid x 5",11.0 days
same,Mean Lung Parameters Score,[2]; [3],2.2
same,Mean SaO2 %,"[2]; 10 mg/kg/day p.o., bid x 5",86.4%
same,Surv/Total,[2]; 10 mg/kg/day p.o.,3/8
same,Mean Surv. Time,"[2]; 32 mg/kg/day p.o., bid x 5",13.0 days
same,Mean Lung Parameters Weight (mg),[2]; [6],163** mg
same,Mean Lung Parameters Score,[2]; [6],0.8**
same,Mean SaO2 %,"[2]; 32 mg/kg/day p.o., bid x 5",88.0* %
same,Surv/Total,[2]; 32 mg/kg/day p.o.,6/8*
same,Mean Surv. Time (days),"[2]; 100 mg/kg/day p.o., bid x 5",>21.0** days
same,Mean Lung Parameters Weight (mg),[2]; [7],140** mg
same,Mean Lung Parameters Score,[2]; [7],0.3**
same,Mean SaO2 %,"[2]; 100 mg/kg/day p.o., bid x 5",88.2* %
same,Surv/Total,[2]; 100 mg/kg/day p.o.,8/8**

# Source: patent publication US20050176758A1, “NOVEL COMPOUNDS AND METHODS FOR SYNTHESIS AND THERAPY” (priority 1995, published 2005)
